Results are given in words; binding and its absence hold for the method and conditions named. For some assays here: In cells and extracts the contact can be indirect. Some entries that bind do so weakly or less than the wild type. Where a sequence is shown, tags or fusion partners need not be part of it.

The source of these data is publication PMC7246803.

Assay [1] deals with T1, BTB-A2.1 (AT5G41330), yeast two-hybrid fusion (Arabidopsis thaliana) (UniProt Q9FN67).
T1 sequence: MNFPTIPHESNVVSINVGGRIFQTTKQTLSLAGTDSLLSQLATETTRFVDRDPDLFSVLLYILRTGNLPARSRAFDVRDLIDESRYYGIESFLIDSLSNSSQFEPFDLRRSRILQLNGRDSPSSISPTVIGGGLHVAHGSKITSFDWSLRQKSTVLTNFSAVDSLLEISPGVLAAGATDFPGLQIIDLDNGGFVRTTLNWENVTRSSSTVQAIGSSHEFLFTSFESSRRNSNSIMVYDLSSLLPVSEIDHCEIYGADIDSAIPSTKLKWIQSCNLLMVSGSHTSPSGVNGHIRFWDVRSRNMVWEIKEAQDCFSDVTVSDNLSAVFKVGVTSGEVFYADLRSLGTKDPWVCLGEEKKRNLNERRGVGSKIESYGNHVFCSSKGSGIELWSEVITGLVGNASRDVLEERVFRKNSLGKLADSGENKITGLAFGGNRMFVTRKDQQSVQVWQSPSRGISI
Kind of assay: two-hybrid; AD (pGADT7) and BD (pGBKT7) fusions co-transformed into yeast strain AH109; growth on SD-WL or SD-WLHA at dilutions 10^-1, 10^-2, 10^-3, 30 °C, 3-5 days.

Assay [2] deals with T2, BTB-A2.3 (AT2G24240), yeast two-hybrid fusion (Arabidopsis thaliana) (UniProt Q9ZUH1).
T2 sequence: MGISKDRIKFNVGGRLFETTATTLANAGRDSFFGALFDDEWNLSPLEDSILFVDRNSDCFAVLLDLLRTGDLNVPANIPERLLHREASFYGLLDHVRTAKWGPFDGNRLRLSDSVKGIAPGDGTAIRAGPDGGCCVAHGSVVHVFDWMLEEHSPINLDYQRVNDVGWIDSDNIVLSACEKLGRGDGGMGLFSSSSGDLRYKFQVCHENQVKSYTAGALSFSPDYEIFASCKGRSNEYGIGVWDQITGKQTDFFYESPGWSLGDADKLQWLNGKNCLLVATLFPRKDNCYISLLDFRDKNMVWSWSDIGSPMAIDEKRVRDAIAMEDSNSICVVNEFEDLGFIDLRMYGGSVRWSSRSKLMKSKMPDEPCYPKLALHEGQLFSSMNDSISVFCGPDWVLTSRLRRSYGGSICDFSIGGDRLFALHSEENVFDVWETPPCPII
The assay is described as above.

Assay [3] has as its target T3, BTB-A2.1-cYFP (Arabidopsis thaliana) (UniProt Q9FN67).
T3 sequence: T1 sequence
The assay can be described thus: split reporter; BiFC with cYFP and nYFP fusions in Nicotiana benthamiana leaves infiltrated with A. tumefaciens GV3101; confocal microscopy 48-72 h after infiltration.

Assay [4] deals with T4, BTB-A2.3-cYFP (Arabidopsis thaliana) (UniProt Q9ZUH1).
T4 sequence: T2 sequence
The description is as above.

B1: BTB-A2.3 (AT2G24240), yeast two-hybrid fusion (protein, UniProt Q9ZUH1 1-441)
chain: T2 sequence
For B1, the binding entry in assay [1] and in assay [2] was “binds” each time.

B2: SnRK2.2, yeast two-hybrid fusion (enzyme, UniProt Q39192 1-362)
chain: MDPATNSPIMPIDLPIMHDSDRYDFVKDIGSGNFGVARLMTDRVTKELVAVKYIERGEKIDENVQREIINHRSLRHPNIVRFKEVILTPSHLAIVMEYAAGGELYERICNAGRFSEDEARFFFQQLISGVSYCHAMQICHRDLKLENTLLDGSPAPRLKICDFGYSKSSVLHSQPKSTVGTPAYIAPEILLRQEYDGKLADVWSCGVTLYVMLVGAYPFEDPQEPRDYRKTIQRILSVTYSIPEDLHLSPECRHLISRIFVADPATRITIPEITSDKWFLKNLPGDLMDENRMGSQFQEPEQPMQSLDTIMQIISEATIPTVRNRCLDDFMADNLDLDDDMDDFDSESEIDVDSSGEIVYAL
As for B2, the binding result in assay [1] and in assay [2] was “no binding” throughout.

B3: SnRK2.3-nYFP (enzyme, UniProt Q39193 1-361)
chain: MDRAPVTTGPLDMPIMHDSDRYDFVKDIGSGNFGVARLMRDKLTKELVAVKYIERGDKIDENVQREIINHRSLRHPNIVRFKEVILTPTHLAIIMEYASGGELYERICNAGRFSEDEARFFFQQLLSGVSYCHSMQICHRDLKLENTLLDGSPAPRLKICDFGYSKSSVLHSQPKSTVGTPAYIAPEVLLRQEYDGKIADVWSCGVTLYVMLVGAYPFEDPEEPRDYRKTIQRILSVKYSIPDDIRISPECCHLISRIFVADPATRISIPEIKTHSWFLKNLPADLMNESNTGSQFQEPEQPMQSLDTIMQIISEATIPAVRNRCLDDFMTDNLDLDDDMDDFDSESEIDIDSSGEIVYAL
Take B3: the binding entry in assay [3] and in assay [4] was “binds” throughout.

B4: SnRK2.3, yeast two-hybrid fusion (enzyme, UniProt Q39193 1-361)
chain: B3 chain
Regarding B4, the binding entry in assay [1] and in assay [2] was “binds” each time.
